The text below walks through data of patent US11369598B2, “Treatment of T-cell mediated diseases” (Ampio Pharmaceuticals, Inc., priority 2003, dated 2022).

This assay relates to H4 #9.25 cells. Conditions: day 7-10 after stimulation with anti-CD3 OKT3 antibody.

As for Asp-Ala diketopiperazine [DA-DKP], the “TNFα secretion from H4 #9.25 cells (FIG. 5)” value is “inhibited”.
